From the supplement of paper PMC12217912
The other results are listed elsewhere or left out. The full chains were built here from the parent and the listed change. Values near 0.05 are background.

B1: TEV protease; numbered along this chain (parent)
chain: MGESLFKGPRDYNPISSSICHLTNESDGHTTSLYGIGFGPFIITNKHLFRRNNGTLVVQSLHGVFKVKDTTTLQQHLVDGRDMIIIRMPKDFPPFPQKLKFREPQREERICLVTTNFQTKSMSSMVSDTSCTFPSGDGIFWKHWIQTKDGQCGSPLVSTRDGFIVGIHSASNFTNTNNYFTSVPKNFMELLTNQEAQQWVSGWRLNADSVLWGGHKVFMVKPEEPFQPVKEATQL

Variants of: B1
Assay: raw area under fraction-flipped curve 0-4 h after induction (AUC4h, not background-subtracted), DNA-recorder readout of cleavage of the substrate (dimensionless); higher = more cleavage of the substrate by the protease variant
Details: temperature: 34 °C; time window: 0-4 h after rhamnose induction
Protocol: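 In vivo DNA recorder in E. coli TOP10(DE3) ΔrhaA at 34 °C. Each TEVp single-site mutant (parent TEVp 0) is paired with a single-site variant of the 7-mer TEVs (canonical ENLYFQ|S). The substrate sits between flexible linkers in a Bxb1-sfGFP-TEVs-SsrA fusion, so cleavage stabilises Bxb1 and speeds flipping of a recombination array, read by NGS. The value is the raw area under the fraction-flipped curve over 0-4 h after rhamnose induction (AUC4h), with ≥20 reads per time point. It is not background-subtracted; inactive controls average about 0.047.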
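Also: Bxb1 expression induced with 0.2% (w/v) L-rhamnose at OD600 near 0.5, cultures sampled hourly, flipped fraction per protease–substrate barcode pair counted by paired-end Illumina sequencing.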

| Variant | area with substrate ENLYFQA | area with substrate ENLYFQC | area with substrate ENLYFQG | area with substrate ENLYFQH | area with substrate ENLYFQI | area with substrate ENLYFQK | area with substrate ENLYFQL | area with substrate ENLYFQM | area with substrate ENLYFQN | area with substrate ENLYFQR | area with substrate ENLYFQS | area with substrate ENLYFQT | area with substrate ENLYFQW | area with substrate ENLYFQE | area with substrate ENLYFQF | area with substrate ENLYFQP | area with substrate ENLYFQV | area with substrate ENLYFQD | area with substrate ENLYFQY | area with substrate ENLYFQQ |
| --- | --- | --- | --- | --- | --- | --- | --- | --- | --- | --- | --- | --- | --- | --- | --- | --- | --- | --- | --- | --- |
| K221L | 0.0834 | 0.114 | 0.0588 | 0.079 | 0.0547 | 0.0543 | 0.0547 | 0.0804 | 0.0724 | 0.0531 | 0.0967 | 0.0538 | 0.059 | – | – | – | – | – | – | – |
| T233M | 0.0847 | 0.0889 | 0.0919 | – | 0.0481 | 0.0514 | – | 0.0689 | 0.0633 | 0.045 | 0.0993 | 0.0704 | 0.0665 | – | – | – | – | – | – | – |
| T233Q | 0.133 | 0.0894 | 0.0796 | 0.08 | – | 0.0622 | 0.0602 | 0.135 | 0.0787 | 0.0642 | 0.105 | – | 0.0643 | 0.0638 | 0.0938 | – | – | – | – | – |
| T233E | 0.0826 | – | – | 0.0888 | 0.0742 | – | – | – | 0.105 | – | 0.109 | – | 0.043 | – | – | 0.0347 | 0.0561 | – | – | – |
| G202R | 0.0809 | – | 0.0733 | 0.0792 | 0.0463 | 0.0565 | – | 0.0615 | 0.065 | 0.0666 | 0.0683 | 0.0573 | – | – | – | 0.0795 | – | 0.0585 | 0.0658 | – |
| A207K | 0.0399 | 0.089 | 0.0804 | 0.0469 | 0.0657 | – | 0.0539 | 0.0752 | 0.0699 | 0.0682 | 0.0922 | – | 0.0596 | – | – | – | – | – | 0.0937 | – |
| K230S | 0.095 | 0.0955 | 0.0591 | – | 0.0589 | 0.0824 | 0.0525 | 0.093 | 0.0651 | 0.0746 | 0.104 | 0.0738 | 0.073 | 0.0687 | 0.0773 | – | 0.0348 | 0.0697 | 0.0722 | – |
| I15P | – | 0.084 | 0.072 | 0.0555 | 0.055 | – | 0.0577 | – | 0.0703 | 0.0541 | 0.0797 | – | 0.0594 | – | – | 0.0346 | 0.0534 | 0.0677 | – | – |
| W203V | 0.074 | 0.0736 | 0.0789 | – | 0.0552 | – | 0.0501 | – | 0.0568 | 0.0577 | 0.0745 | 0.0632 | – | – | 0.043 | 0.0773 | 0.0617 | 0.061 | – | 0.0621 |
| S201G | 0.068 | 0.0627 | 0.0827 | – | 0.0668 | – | 0.0613 | 0.0575 | 0.0592 | 0.0503 | 0.0679 | 0.0612 | 0.0459 | – | – | – | – | – | 0.0607 | – |
| E223N | 0.1 | 0.106 | – | 0.0777 | 0.0563 | 0.0572 | 0.0498 | – | 0.065 | – | 0.0889 | 0.074 | – | 0.0589 | 0.0937 | 0.0586 | – | – | – | 0.068 |
| E223Y | 0.097 | 0.0859 | 0.0876 | – | 0.0595 | – | 0.0541 | 0.0774 | 0.0868 | 0.0511 | 0.0964 | 0.0623 | – | – | – | – | – | – | – | 0.0574 |
| F226Q | 0.115 | 0.125 | 0.122 | 0.0957 | 0.06 | 0.0676 | 0.0625 | 0.0798 | 0.0596 | 0.0642 | 0.11 | 0.0745 | – | 0.0502 | – | 0.0599 | 0.0795 | – | 0.093 | 0.0772 |
| F226E | 0.123 | 0.132 | – | – | 0.0618 | 0.0877 | 0.0604 | 0.115 | – | 0.0652 | 0.109 | 0.0692 | 0.0705 | – | – | 0.0731 | – | 0.0726 | 0.0856 | 0.0656 |
| R204M | 0.1 | 0.12 | 0.117 | – | 0.0584 | 0.0704 | 0.0632 | 0.0983 | 0.0811 | 0.0595 | 0.111 | 0.0706 | 0.0619 | 0.0695 | 0.0798 | 0.062 | 0.108 | 0.0797 | 0.0816 | – |
| R204G | 0.066 | 0.0875 | 0.0942 | – | 0.059 | 0.0625 | 0.0635 | 0.0534 | 0.0741 | 0.0436 | 0.0889 | 0.0653 | 0.0458 | 0.0642 | 0.0751 | – | 0.058 | 0.0665 | – | – |
| R204V | 0.104 | 0.141 | 0.108 | 0.0878 | 0.0658 | 0.0663 | 0.0652 | 0.0728 | 0.0834 | 0.0628 | 0.121 | 0.063 | 0.0692 | 0.064 | – | 0.0583 | 0.0652 | – | 0.0952 | – |
| Q197V | 0.0922 | 0.0925 | 0.165 | – | 0.0602 | 0.0595 | 0.0497 | 0.0677 | 0.077 | – | 0.108 | 0.0654 | 0.06 | 0.0471 | – | 0.051 | 0.0607 | 0.0621 | 0.0766 | 0.0581 |
| P225C | 0.0808 | 0.101 | 0.0818 | 0.0786 | 0.0595 | 0.0544 | 0.0712 | 0.0848 | 0.0719 | 0.0603 | 0.097 | 0.0649 | – | – | – | 0.0861 | 0.0636 | – | 0.0789 | 0.0492 |
| P225K | 0.0697 | 0.106 | 0.11 | 0.0777 | – | 0.0631 | 0.0604 | 0.0837 | 0.108 | 0.0622 | 0.101 | 0.0536 | – | – | – | – | 0.0618 | 0.0784 | 0.0771 | – |
| Q198T | 0.0939 | 0.129 | 0.0958 | 0.0809 | – | – | 0.0665 | 0.101 | 0.0779 | 0.0566 | 0.106 | 0.0854 | 0.0613 | – | – | – | 0.0509 | 0.0619 | – | – |
| R10W | – | 0.108 | 0.11 | 0.0762 | 0.0551 | 0.0673 | 0.0618 | 0.08 | 0.0842 | 0.0679 | 0.101 | 0.0604 | 0.0749 | – | 0.0678 | – | 0.0581 | – | 0.0737 | 0.0779 |
| E195R | 0.0857 | 0.115 | 0.1 | 0.0979 | – | 0.0603 | 0.0561 | 0.0955 | 0.063 | – | 0.0948 | – | 0.075 | – | – | 0.0641 | – | 0.0781 | – | – |
| F218N | 0.0625 | 0.0879 | 0.0747 | 0.0726 | – | – | – | 0.0654 | 0.0527 | – | 0.0912 | – | 0.0617 | 0.0736 | 0.0559 | – | 0.0547 | – | – | – |
| V229Q | 0.0786 | 0.12 | 0.0838 | – | 0.064 | – | 0.0519 | – | 0.0411 | 0.0405 | 0.092 | 0.0829 | 0.0629 | – | – | – | – | 0.0661 | – | – |
